In all, about 43,000 compounds went through this assay and about 200 (0.47%) were called active. Not shown: some 12% with an inconclusive outcome. Calls follow the shape of the dose curve; as a rule, active = well fitted cell-killing curve with a large enough effect; inconclusive = small, poorly fitted or top-dose-only effect, or effect the other way; inactive = flat fitted curve, though single readings scatter. The list shows a part of the results.
% is scaled to controls: 0 for no effect and ±100 for the full control effect.

A short description of this assay: Cell viability qHTS assay in S16 Pmp22-F2sN cells. Also: nearly all actives have a fitted effect of over 65% in size. The conditions noted are these: S16 Pmp22-F2sN Schwann cells (luciferase reporters placed in the Pmp22 gene) viability, CellTiter-Glo, 24 h; series mostly up to 57.5 µM; activity change, negative = cytotoxicity: at the top concentration. In outline:
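Rat S16 Schwann reporter line, 24 h treatment with library compounds delivered at 23 nL per well. Cell viability by CellTiter-Glo luminescence.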
For orientation: qHTS replaces the single test concentration by a dilution series.
With `Cc1ccc(Cl)cc1NC(=O)Cn1cc2c(n1)CCCCC2`, the “activity change, negative = cytotoxicity” value was inactive: 18.3%.
The figure for `Cc1noc2ncnc(N3CCN(c4ccccc4F)CC3)c12` is inactive: -10.9%; for `CCOC(=O)CSc1nnc2n(-c3ccccc3)c(=O)c3c4c(sc3n12)COC(C(C)C)C4` (configuration not stated) it is inactive: 12.1%; for `Cc1ccc(-n2nc(C)c3c(C(=O)O)cc(C)nc32)cc1` it is inactive: 6.93%.
The figure for `Cc1cc2c(cc3c(=O)n(CC(=O)NCc4ccccc4Br)ncn32)s1` is inactive: 9.1%.
With `CC(=O)N1CCc2c(sc3c2c(=O)n(-c2cccc(Cl)c2)c(=O)n3Cc2ccc(F)cc2Cl)C1` the figure was inactive: -10.8%; with `Cc1nn(C)c2c1c(C(F)(F)F)cc(=O)n2CC(=O)N1CCN(c2ccccc2F)CC1`, inactive: -7.98%.
`Cc1cc(-c2ccc(C)c(S(=O)(=O)N3c4ccccc4CC3C)c2)on1` (configuration not stated): the “activity change, negative = cytotoxicity” value was inactive: -10.5%.
With `O=C(NCc1ccc2c(c1)CCN2C(=O)c1ccc(Cl)cc1)c1ccco1` the figure was inactive: -24.4%; with `CCOC(=O)c1c(NC(=O)/C=C/c2ccc(OCC)cc2)sc2c1CCCC2`, inactive: 14%; with `O=C(Cn1c(=O)n(-c2ccccc2)c(=O)c2c3c(sc21)CCCC3)Nc1ccccc1`, inactive: 23%.
With `CCOc1ccc(-c2cc(C(=O)NCCc3ccccc3)c3c(-c4ccc(C)cc4)[nH]nc3n2)cc1` the figure was inactive: 22.7%.
With `Cc1cc(C)c2c(=O)c3c(oc2c1)C(=O)N(Cc1ccco1)C3c1ccc(F)cc1` (configuration not stated) the figure was inactive: 7.28%; with `Cc1ccc(CC(=O)Nc2c(C(=O)N3CCN(c4ccccc4)CC3)oc3ccccc23)cc1`, inactive: -16%.
Turning to `CCOC(=O)c1noc2nc(C)n(CC(=O)Nc3ccc(OC)c(Cl)c3)c(=O)c12`, the “activity change, negative = cytotoxicity” value was inactive: -4.69%.
With `O=C(O)CSc1nnc(-c2ccc(O)cc2)o1` the figure was inactive: 1.99%; with `Cc1cc(N2CCC(C(=O)Nc3ccc(Cl)cc3)CC2)n2nc(C)c(-c3ccc(Cl)cc3)c2n1`, inactive: 6.1%; with `Cc1nc(-c2ccc(S(=O)(=O)N(Cc3ccccc3)C(C)C)cc2)co1`, inactive: 11.4%.
Take `COc1ccc(CCn2c(=O)c3cccnc3n(CC(=O)Nc3ccc(C)cc3C)c2=O)cc1OC`: the “activity change, negative = cytotoxicity” value was inactive: 16.5%.
The figure for `Cn1cc(C(=O)Nc2ccc(C#N)cc2)c2ccccc2c1=O` is inactive: 18.1%; for `O=C(Nc1cccc(C(=O)OCc2cc(=O)n3c4c(sc3n2)CCCC4)c1)c1cccc(Cl)c1` it is inactive: 0.156%.
For `COc1cccc(NC(=O)Cn2nnc(C(=O)NCCc3ccccc3)c2N)c1`, the “activity change, negative = cytotoxicity” value is inactive: -4.97%.
The figure for `Cc1ccc(Cl)cc1NC(=O)C1CCN(C(=O)c2cnn(-c3ccccc3)c2-n2cccc2)CC1` is inactive: -20.1%; for `O=C(CSc1nc2c([nH]c3ccccc32)c(=O)n1-c1ccc(F)cc1)NCc1ccc(F)cc1` it is inactive: 1.75%.
With `CCOc1ccc(CCNC(=O)c2ccc3c(c2)nc2n3CCOC2)cc1OCC` the figure was inactive: 11.3%.
In the case of `CC(C)OCCCNC(=O)CCCn1c(SCC(N)=O)nc2c(sc3ccccc32)c1=O`, the “activity change, negative = cytotoxicity” value was inactive: 3.36%.
The figure for `Cc1cc(C)nc(NS(=O)(=O)c2ccc(NC(=O)c3nc(SC(C)C)ncc3Cl)cc2)n1` is inactive: -0.178%.
Turning to `Cc1c(Cl)cccc1-n1ncc(C(=O)N2CCC(C)CC2)c1C1CCN(C(=O)OC(C)(C)C)CC1`, the “activity change, negative = cytotoxicity” value was inactive: -5.09%.
As for `Cc1oc(-c2ccc(C(=O)NCc3ccccc3F)cc2)nc1COc1ccccc1`, the “activity change, negative = cytotoxicity” value was inactive: 12.1%.
The figure for `CN(C(=O)C1CCN(c2ncnc3c2nc2n3CCCCC2)CC1)c1ccccc1F` is inactive: -1.02%; for `CC(C)C(NS(=O)(=O)c1ccc2c(c1)oc(=O)n2C)C(=O)NCc1ccccc1` (configuration not stated) it is inactive: 6.03%; for `CC(=O)c1ccc(N2CCN(C(=O)c3cc4c(s3)-c3ccccc3OC4)CC2)cc1` it is inactive: -7.59%.
Turning to `COc1ccccc1CNC(=O)C1CCN(S(=O)(=O)c2ccc3[nH]c(=O)ccc3c2)CC1`, the “activity change, negative = cytotoxicity” value is inactive: 8.89%.
The figure for `CCOC(=O)c1ccccc1NC(=O)NCc1cccn1Cc1ccc(F)cc1` is inactive: -19.7%.
The figure for `Cc1ccc(Cn2ccnc2SCC(=O)Nc2ccccc2C(F)(F)F)cc1` is inactive: 7.69%; for `COc1ccc(OC)c(NC(=O)CCn2cccn2)c1` it is inactive: 6.02%; for `CCCn1c2ccccc2c2cnn(CC(=O)NCc3ccc(OC)cc3)c(=O)c21` it is inactive: 15.2%.
With `CC(=O)c1ccc(N2CCN(c3nc4ccccc4c4nc(-c5cccc(C)c5)nn34)CC2)cc1` the figure was inactive: -4.23%; with `CCc1nn(CC(=O)N2CCN(c3cccc(Cl)c3)CC2)c(=O)c2cc3sccc3n12`, inactive: 2.42%.
As for `O=C1CC(c2cccc(Cl)c2Cl)c2cc3c(cc2N1)OCCO3` (configuration not stated), the “activity change, negative = cytotoxicity” value is inactive: -17.4%.
The figure for `COc1cc(OC)c(NC(=O)Cn2c(SCc3ccccc3F)nc3cccnc32)cc1Cl` is inactive: 10.9%; for `CCOC(=O)c1ccc(NC(=O)COc2cccc3c(=O)n(C)ccc23)cc1` it is inactive: -27.7%; for `O=S(=O)(c1ccc(F)cc1)N(Cc1nc(-c2ccccc2)no1)C1CCCCC1` it is inactive: -0.259%.
With `COc1ccc(NC(=O)CN2CCN(CC(=O)Nc3ccccc3F)CC2)cc1OC` the figure was inactive: 3.11%; with `Cc1oc(-c2ccccc2Cl)nc1CS(=O)CC(=O)NCc1ccccc1Cl` (configuration not stated), inactive: 2.05%; with `Cc1ccc(-n2nc(C(=O)Nc3ccc(Br)cc3C)c(=O)n(C)c2=O)cc1`, inactive: 5.43%.
With `COc1ccccc1CNC(=O)CSCc1nc(-c2ccc(OC)c(OC)c2)oc1C` the figure was inactive: -25.8%.

The values above are taken from PubChem BioAssay AID1508642 (National Center for Advancing Translational Sciences (NCATS), 2021).
